According to PubChem BioAssay AID1645887 (National Center for Advancing Translational Sciences (NCATS), 2021):
Where “and” joins values, the source holds several entries; their conditions need not be identical. Identical values can stand only once. Hit rate of the full screen: of about 16,000 compounds, about 40 (0.2%) were called active. Not shown: some 1% with an inconclusive outcome. Calls come from the whole dose curve; as a rule, active = well fitted activation curve with a large enough effect; inconclusive = small, poorly fitted or top-dose-only effect, or another doubt; inactive = no such curve, though single readings can be large or run the other way. The list shows a part of the results.

Molecular target: Rap guanine nucleotide exchange factor 4 (Homo sapiens) (UniProt Q8WZA2)
Assay: Validation qHTS for agonist of cAMP-regulated guanine nucleotide exchange factor 4 (EPAC2);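 note: exchange makes BODIPY-GDP fluorescence drop when released from Rap1B; series mostly up to about 150 µM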
Conditions: EPAC2 Rap1B BODIPY-GDP exchange, fluorescence; activation: hits give high values
Procedure, shortened: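 Signal normalized against 6.5 mM cAMP as agonist control. Mix of EPAC2 (100 nM), RAP1B-BODIPY-GDP (250 nM) and GDP (50 uM) was read kinetically at 480/540 nm, every 5 min over 30 min, after 5 min room-temperature incubation with compound.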
% is set by controls: 0 for no effect and ±100 for the full control effect.

Chain of UniProt Q8WZA2 (Q8WZA2 whole entry, looked up): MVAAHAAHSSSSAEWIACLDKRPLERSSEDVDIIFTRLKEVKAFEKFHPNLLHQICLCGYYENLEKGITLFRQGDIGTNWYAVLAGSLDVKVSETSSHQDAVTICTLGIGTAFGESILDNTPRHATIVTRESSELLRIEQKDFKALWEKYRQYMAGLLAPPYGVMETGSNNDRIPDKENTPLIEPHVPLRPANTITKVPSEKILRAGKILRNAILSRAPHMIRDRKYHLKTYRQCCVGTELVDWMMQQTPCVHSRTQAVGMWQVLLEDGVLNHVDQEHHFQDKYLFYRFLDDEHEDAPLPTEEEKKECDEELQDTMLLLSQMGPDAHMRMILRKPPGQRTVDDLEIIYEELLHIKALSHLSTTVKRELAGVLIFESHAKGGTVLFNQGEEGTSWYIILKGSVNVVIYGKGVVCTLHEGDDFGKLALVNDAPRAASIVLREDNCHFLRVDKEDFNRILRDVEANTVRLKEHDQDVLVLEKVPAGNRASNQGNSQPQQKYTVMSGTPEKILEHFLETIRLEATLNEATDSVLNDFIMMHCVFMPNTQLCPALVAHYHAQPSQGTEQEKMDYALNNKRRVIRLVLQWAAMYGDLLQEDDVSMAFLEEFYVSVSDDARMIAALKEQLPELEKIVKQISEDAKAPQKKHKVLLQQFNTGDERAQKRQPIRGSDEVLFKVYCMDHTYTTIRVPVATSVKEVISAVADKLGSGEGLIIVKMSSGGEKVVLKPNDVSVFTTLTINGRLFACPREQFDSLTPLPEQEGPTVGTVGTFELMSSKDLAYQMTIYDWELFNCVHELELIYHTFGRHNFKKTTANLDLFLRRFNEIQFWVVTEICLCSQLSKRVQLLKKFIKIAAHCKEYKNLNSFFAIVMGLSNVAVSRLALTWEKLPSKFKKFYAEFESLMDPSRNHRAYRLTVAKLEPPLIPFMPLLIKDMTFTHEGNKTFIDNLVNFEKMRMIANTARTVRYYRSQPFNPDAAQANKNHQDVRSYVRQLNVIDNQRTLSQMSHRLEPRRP

activation, inactive:
Cc1noc(C)c1C(=O)N1CCC[C@@]2(CCN(Cc3ccc(C#N)cc3)C2)C1 -10%
Cc1cccc(C)c1NC(=O)C[N+](C)(C)C -36.6%
O=C(OCCN1CCCCC1)c1c[nH]c2ccccc12 -15.4% and 7.2%
O=C(c1cc(C(F)(F)F)cc(C(F)(F)F)c1)N1CCC2(CCN(Cc3nccs3)CC2)CC1 -8.68%
N[C@H](C(=O)O)c1cccc(O)c1 -2.02% and -6.96% and 7.11%
Nc1nc(Nc2ccccc2)nc2c1ncn2[C@@H]1O[C@H](CO)[C@@H](O)[C@H]1O -15.2%
OC1(c2cccnc2)CCN(Cc2ccc3c(c2)CN(Cc2cc(F)cc(F)c2)CCO3)CC1 -25%
COc1cc(CCNC(C)=O)c(C(=O)/C=C/c2cccc(OC)c2OC)cc1OC -38.7%
Cc1cc(O)cc(O)c1C(=O)O -4.11%
CO[C@H]1[C@H](NC(=O)c2cccs2)c2ccccc2C12CCN(Cc1cccn1-c1ccccn1)CC2 -17.5%
CCNC(=O)CCC(N)C(=O)O (stereo unspecified) 2.49%
Cn1c(=O)c(CCc2ccccc2)nc2cnc(OCc3ccccc3)nc21 -8.65%
COc1cc(=O)n2c(c1C(=O)N(C)Cc1nonc1C)CCN(Cc1ccc(C)cc1C)CC2 -7.14%
O=C(C[n+]1cc(Br)cc2ccccc21)c1ccc(Cl)cc1 -36.7%
CC[C@@H]1Cc2cc(O)ccc2C2=C1c1ccc(O)cc1C[C@H]2CC -17.5%
O=C(NCC1(N2CCCCC2)CCCC1)c1cnn(-c2nccc(-c3cccs3)n2)c1C1CC1 -3.25%
C[C@@H]1NC(=O)[C@@H](N)CNC(=O)[C@H](C2CCNC(N)=N2)NC(=O)/C(=C/NC(N)=O)NC(=O)[C@H](CNC(=O)C[C@@H](N)CCCN)NC1=O (stereo partly specified) 5.82% and -10%
CCn1cc(CN2CCOc3ccc(C(O)C4CCCCC4)cc3C2)c(C)n1 (stereo unspecified) -16.7%
CCCCCCCCCCOCC(O)CN (stereo unspecified) -18.7%
Cc1cc(=O)c(C(=O)NCCc2ccccn2)c2n1-c1ccccc1SC(c1cccs1)C2 (stereo unspecified) -23.1%
C=CC[C@H](c1ccc(F)cc1)N(CC(C)C)S(=O)(=O)C=C -21.9%
COc1ccc2cc3[n+](cc2c1OC)CCc1cc2c(cc1-3)OCO2 -23.8% and 15.2%
COCc1ccc(CN2CCOc3ccc(C4=Cc5ccccc5C4)cc3C2)o1 4.91%
CC[N+](C)(C)c1ccc(/C=C/c2ccnc3ccccc23)cc1 -39.5%
COCCn1c(=O)c(-c2cccc(C#N)c2)nc2cnc(Oc3ccc(OC)cc3)nc21 8.51%
Nc1ncnc2c1ncn2[C@H]1CC[C@@H](CO)O1 -5.98% and -12.5%
COc1ccc(CN2CCC(=O)N([C@H](CO)CC(C)C)CC2)cc1OC -5.37%
CCOC(=O)C[C@H]1c2ccccc2S(=O)(=O)N1c1cccc(OC)c1 -18.9%
CN(Cc1ccco1)c1cc(-c2ccoc2)ncn1 -0.172%
CC(CCC(=O)O)C1CCC2C3C(=O)CC4CC(=O)CC[C@@]4(C)C3CC(=O)[C@]12C (stereo partly specified) 6.73%
Cc1noc(C)c1-c1nc(N2CCNCC2)c2ccccc2n1 -2.85%
Cc1cnc(CNc2cc(-c3ccccc3CN(C)C)ncn2)cn1 -7.83%
COCC(=O)Nc1cc(C(=O)N2CCOc3ccccc3C2)cc2nc(-c3cccnc3)n(C)c12 -5.98%
Cn1cccc1C(=O)N1CCC2(CCCN(Cc3nccs3)C2)CC1 -4.75%
OCC(S)CS (stereo unspecified) 4.59%
Cc1noc(C)c1-c1cc(NCc2cccs2)ncn1 -18%
[Li+] -21.9%
CC(C)=CC1C(C(=O)O)C1(C)C (stereo unspecified) -0.801%
COC(=O)c1ccc(CN2CCOc3ccc(C(O)c4cccnc4)cc3C2)cc1 (stereo unspecified) -22.1%
O=c1c(CCc2ccccc2)nc2cncnc2n1Cc1ccc(F)cc1 -7.88%
CC(C)(C)C(=O)OCOC(=O)[C@@H]1N2C(=O)[C@@H](N=CN3CCCCCC3)[C@H]2SC1(C)C -3.03%
CCCCCCCCCCCCN1C/C(=C\C(=O)OCC)c2cc(C(F)(F)F)ccc2S1(=O)=O -38.4%
Cc1cnc(CNc2cc(-c3ccccc3Cl)ncn2)cn1 1.5%
CC(=O)NC[C@H]1CN(c2ccc(N3CCOCC3)c(F)c2)C(=O)O1 5.55%
NC(=O)c1cc[n+](CC2=C(C(=O)[O-])N3C(=O)[C@@H](NC(=O)Cc4cccs4)[C@H]3SC2)cc1 -2.53%
COc1cc(=O)n2c(c1C(=O)NCc1ccco1)CCN(Cc1ccc3ccccc3c1)CC2 0.571%
CN1CCN(c2ncc3nc(-c4ccccc4)c(=O)n(Cc4ccc(F)cc4)c3n2)CC1 -11.3%
Cc1nccn1CC1CCc2c(c3ccccc3n2C)C1=O (stereo unspecified) -9.2% and -2.03%
O=C1C(O)=C(O)C(=O)C(O)=C1O 21.6%
O[C@H](CCCN1CCN(c2ncc(F)cn2)CC1)c1ccc(F)cc1 -18.4%
c1ccc(CCc2nnc3n2CCN(Cc2ccc4ccccc4n2)CC3)cc1 -12%
CCCCN(CC)CCOc1cccc2ccccc12 -7.81%
CCN(CC)CCOc1ccc(-c2nc3cc(Cl)ccc3s2)cc1 -1.82%
CC(C)NC(=O)[C@@H]1C[C@@H](Sc2ccccn2)CN1C1CCN(C)CC1 -0.85%
CC1(C)[C@@H]2CC[C@@]1(C)[C@H](OC(=O)CSC#N)C2 -3.68%
O=C(c1cc(C(F)(F)F)cc(C(F)(F)F)c1)N1CCC[C@@]2(CCN(Cc3ccccc3)C2)C1 -17.8%
